Here are results for 86 molecules from article PMC4336329 (PLoS ONE, 2015).

SMILES strings stand for the structures. Screen size: about 310,000 compounds; about 14,000 (4.5%) showed an effect of 50% or more. The effect is printed as a negative number. The list shows a part of the results.
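Also: peak tail current of the secondary pulse compared with the same well before compound.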

Sequence of human ether-à-go-go-related gene (hERG) potassium channel (Q12809 whole entry, looked up): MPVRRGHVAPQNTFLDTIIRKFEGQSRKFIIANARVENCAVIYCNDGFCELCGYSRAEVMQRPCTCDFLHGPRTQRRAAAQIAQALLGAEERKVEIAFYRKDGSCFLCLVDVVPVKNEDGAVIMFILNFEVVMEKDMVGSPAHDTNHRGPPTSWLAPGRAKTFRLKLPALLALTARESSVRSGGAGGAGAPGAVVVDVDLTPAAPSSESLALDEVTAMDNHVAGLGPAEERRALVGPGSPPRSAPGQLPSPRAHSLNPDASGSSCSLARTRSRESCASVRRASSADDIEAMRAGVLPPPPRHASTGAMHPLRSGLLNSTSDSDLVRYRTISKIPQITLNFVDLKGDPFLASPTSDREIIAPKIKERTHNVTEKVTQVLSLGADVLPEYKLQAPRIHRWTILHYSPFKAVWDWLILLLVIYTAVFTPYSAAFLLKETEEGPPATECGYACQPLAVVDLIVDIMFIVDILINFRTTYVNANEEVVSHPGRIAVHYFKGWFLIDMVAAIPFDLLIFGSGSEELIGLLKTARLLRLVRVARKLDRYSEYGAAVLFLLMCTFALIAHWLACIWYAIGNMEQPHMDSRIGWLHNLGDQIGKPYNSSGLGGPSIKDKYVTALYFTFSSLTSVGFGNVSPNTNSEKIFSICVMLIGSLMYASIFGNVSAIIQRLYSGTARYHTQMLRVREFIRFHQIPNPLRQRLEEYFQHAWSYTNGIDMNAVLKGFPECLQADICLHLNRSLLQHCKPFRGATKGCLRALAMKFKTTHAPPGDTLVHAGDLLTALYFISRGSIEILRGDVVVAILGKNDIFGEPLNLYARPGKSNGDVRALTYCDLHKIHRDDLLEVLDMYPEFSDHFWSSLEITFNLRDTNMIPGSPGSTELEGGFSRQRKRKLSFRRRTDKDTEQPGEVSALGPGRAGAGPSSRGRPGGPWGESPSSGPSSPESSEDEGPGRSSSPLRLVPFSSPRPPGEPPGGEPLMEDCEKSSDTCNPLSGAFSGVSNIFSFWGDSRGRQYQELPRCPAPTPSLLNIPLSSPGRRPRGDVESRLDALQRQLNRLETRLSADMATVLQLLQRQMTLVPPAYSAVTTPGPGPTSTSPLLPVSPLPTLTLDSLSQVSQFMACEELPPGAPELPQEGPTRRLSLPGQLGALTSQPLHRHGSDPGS

This assay has as its target human ether-à-go-go-related gene (hERG) potassium channel (human, UniProt Q12809). The assay is described as follows: primary screen, population patch clamp on CHO cells stably expressing hERG.
`CN1CCN(C(=S)c2ccc(-c3cccc([N+](=O)[O-])c3)o2)CC1`: the “hERG current change (%, negative = inhibition) at 10uM” value is -35.1%.
The figure for `Cc1ccc(CN2CCN(Cc3c(C)nn(C(C)C)c3C)CC2CCO)o1` (centres unmarked) is -7.24%; for `CCOC(=O)c1[nH]cnc1C(=O)Nc1cccc(N)n1` it is 5.62%.
Take `C#CCNC(=O)C1=C[C@H](c2ccc(Br)cc2)C[C@H](OCCCCO)O1`: the “hERG current change (%, negative = inhibition) at 10uM” value is -13.7%.
With `COc1ccc(NC(=O)CCc2c(C)nc3nc(C)nn3c2C)cc1` the figure was 12.7%; with `OCOCCCn1c(C2CCCN2c2nc(-c3ccc(F)cc3)cs2)nc2cc(Cl)c(N3CCCCC3)cc21` (centres unmarked), -5.47%.
For `CCc1ccc(S(=O)(=O)NCCOc2cccc3cccnc23)cc1`, the “hERG current change (%, negative = inhibition) at 10uM” value is recorded as -36%.
Take `CN(C)N=Nc1nc2c(c(=O)n(C)c(=O)n2C)n1CC1CO1` (centres unmarked): the “hERG current change (%, negative = inhibition) at 10uM” value is -18.7%.
With `Cc1cnc(NC(=O)c2cncc(Br)c2)s1` the figure was 17.1%; with `O=C(NNC(=O)c1ccccc1O)c1ccco1`, 18.6%.
The figure for `Cc1cccc(NC(=O)CNC(=O)c2cn(Cc3ccccc3)nc2-c2cccnc2)c1C` is -17.4%; for `C#CCOCCOCCOCCNc1nc(N2CCN(C(=O)[C@H](Cc3ccc(O)cc3)n3cc([C@@H](N)C(C)CC)nn3)CC2)nc(N2CCN(C(=O)[C@H](Cc3cc4ccccc4[nH]3)n3cc([C@@H](N)Cc4ccc(O)cc4)nn3)CC2)n1.Cl` (some centres unmarked) it is 7%.
With `Cc1cc(C)c(-n2c(O)c(/C=N/NC(=O)c3ccncc3)c(=O)[nH]c2=O)c(C)c1`, the “hERG current change (%, negative = inhibition) at 10uM” value was 6.13%.
Consider `COc1ccc(CCNC(=O)c2cccc(NS(=O)(=O)c3ccccc3F)c2)cc1OC`, for which the “hERG current change (%, negative = inhibition) at 10uM” value is given as 2.36%.
With `O=C(NN=C1CCCC1)c1cccs1` the figure was -2.76%; with `Cn1c(N)c(C(C[N+](=O)[O-])c2ccccc2Cl)c(=O)n(C)c1=O` (centres unmarked), 14%.
The figure for `COC(=O)c1ccc(Cn2nc(-c3ccc(C)c(C)c3)ccc2=O)cc1` is 16.7%; for `Nc1nc(N)c2c(ccc3nccc32)[nH]1` it is 11.6%; for `CN(C)C(CNC(=O)c1ccc2ccccc2c1)c1ccco1` (centres unmarked) it is -6.58%.
With `CCOc1ccc(CCNC(=O)c2c(C)nn(-c3ccccc3)c2Cl)cc1OCC` the figure was -25.3%.
Take `c1csc(CNc2ncnc3ccc(-c4ccoc4)cc23)c1`: the “hERG current change (%, negative = inhibition) at 10uM” value is given as -13.4%.
With `COc1ccc(/C=C/C(=O)OCC(=O)NCc2ccccc2)cc1OC`, the “hERG current change (%, negative = inhibition) at 10uM” value is -0.695%.
As for `N/C(Cc1nc2ccccc2s1)=N\O`, the “hERG current change (%, negative = inhibition) at 10uM” value worked out at 7.15%.
The figure for `CCOC(=O)C1=C(N)Oc2cc(O)ccc2C1c1ccc(C)cc1` (centres unmarked) is -14.6%; for `CCCN(CCC)c1nc(NC2CCN(C(=O)OCC)CC2)nc(OC)n1` it is -25.4%.
With `Cc1sc2nc(C3CC3)nc(SCC(=O)N3CCCc4ccccc43)c2c1C` the figure was 22.7%.
The figure for `Cc1ccc(NS(=O)(=O)c2ccc(OCC(=O)NCc3ccccn3)cc2)cc1` is 4.79%.
As to `Cc1nnc(NC(=O)C(C)Sc2nnc(CCNC(=O)c3ccccc3F)n2C)s1` (centres unmarked), the “hERG current change (%, negative = inhibition) at 10uM” value is 21.1%.
Turning to `CCc1ccc2[nH]c(=O)c(CN(CCN(C)C)C(=S)NCc3ccco3)cc2c1`, the “hERG current change (%, negative = inhibition) at 10uM” value was -52%.
The figure for `Cc1ccc2nc(NC(=O)CCNS(=O)(=O)c3cccs3)sc2c1` is -0.362%.
For `CCOC(=O)c1c(CN2CCOCC2)n(-c2ccccc2)c2cc(Br)c(O)c(CN(C)C)c12`, the “hERG current change (%, negative = inhibition) at 10uM” value is recorded as -42.3%.
The figure for `CCCC(C)NC(=O)c1ccc(C2SCC(=O)N2Cc2ccco2)cc1` (centres unmarked) is -11.1%.
For the molecule `O=C(CCc1nnc(-c2ccsc2)o1)N1CCc2c(Cl)cccc2C1`, the “hERG current change (%, negative = inhibition) at 10uM” value is -34.7%.
Consider `O=C(CSc1ncnc2c1oc1ccccc12)NC1CCCC1`, for which the “hERG current change (%, negative = inhibition) at 10uM” value was -7.51%.
`COc1ccc(C(=O)Nc2ccc(O)c3ccccc23)cc1OC`: the “hERG current change (%, negative = inhibition) at 10uM” value is 14.1%.
The figure for `N#CCCCC#Cc1ccc2c(c1)COc1c3ccccc3nn1-2` is 6.95%; for `Cc1ccc(C(=O)c2ccccc2C(=O)O)s1` it is -1.28%; for `CC(C)=CC(=O)Nc1ccc2c(c1)OCO2` it is 10.2%.
With `CSc1cccc(NC(=O)Nc2nc3c(C)cccc3s2)c1` the figure was 26.4%; with `Cc1ccc2nc(N3CCN(c4ccccc4)CC3)c(C=O)c(=O)n2c1`, 11.5%.
As to `COc1ccc(-c2oc(=O)c3cc(OC)c(OC)cc3c2/C=C/c2ccc(F)cc2)cc1`, the “hERG current change (%, negative = inhibition) at 10uM” value is listed as 9.18%.
Take `Cn1c(CCN2CCN(c3ccccn3)CC2)nc2cc(NC(=O)COc3ccc([N+](=O)[O-])cc3)ccc21`: the “hERG current change (%, negative = inhibition) at 10uM” value is reported as -5.69%.
The figure for `COc1ccc(C(C)=O)c(Oc2nc(CN3CCOCC3)nc3scc(-c4cccs4)c23)c1` is -43%; for `COc1ccc(OCC(=O)OC(C)CN2CCOCC2)cc1` (centres unmarked) it is 14.2%; for `CC(C)C(=O)Nc1ccc(S(=O)(=O)Nc2nccc(/C=C/c3ccccc3)n2)cc1` it is 3.27%.
The figure for `COc1cccc(CN(C)C(=S)Nc2cccc(C)c2)c1` is 2.64%; for `CC1CCN(S(=O)(=O)c2ccc3c(c2)c(=O)c(C(=O)NC2CCCC2)cn3C)CC1` it is -16.9%.
The figure for `O=C(CN1C(=O)CCC1=O)Nc1nc(-c2ccc3ccccc3c2)cs1` is -1.28%; for `CCOc1ccc(NC(=O)C/C(C)=N/NC(=O)Cc2cccs2)cc1` it is 9.73%.
For `COCCNC(=O)C(=O)NCC1OCCN1C(=O)c1ccc(Cl)cc1` (centres unmarked), the “hERG current change (%, negative = inhibition) at 10uM” value is recorded as -8.52%.
The figure for `Cc1cc(/C=N/NC(N)=O)c(C)n1C1CCCCC1` is 1.46%.
For the molecule `O=C(CN1CCCC1)Nc1c2c(nc3ccccc13)N(Cc1ccccc1)CC2.O=C(O)C(=O)O`, the “hERG current change (%, negative = inhibition) at 10uM” value was 6.05%.
With `C=CCc1cccc2cc(C(=O)N3CCN(C(=O)c4ccccc4)CC3)c(=O)oc12` the figure was -12.9%; with `Cc1cccnc1NC(=O)C1CCN(S(=O)(=O)c2ccc3c(c2)CCC(=O)N3)CC1`, 16.1%.
The figure for `COc1ccc2nc(SCC(=O)Nc3ccc4c(c3)CCC4)[nH]c2c1` is 8.79%.
For the molecule `COC(=O)C(C)Sc1ccc2nnc(-c3ccccc3)n2n1` (centres unmarked), the “hERG current change (%, negative = inhibition) at 10uM” value is -30.8%.
With `Cc1ccc(C(=O)NN2CCOCC2)cc1[N+](=O)[O-]` the figure was 13.5%; with `N#CCSc1nc2ccccc2o1`, 4.88%; with `COc1cc(OC)cc(C(=O)NNS(=O)(=O)c2ccc(F)cc2)c1`, 9.4%.
With `Brc1ccc(/C=N/n2cnnc2)s1` the figure was 11.2%; with `Cc1ccc(/C(N)=N/OC(=O)CCCc2ccccc2)cc1`, 4.79%; with `O=C(Nc1ccc(Br)cc1)N1CCCCCCC1`, -3.66%.
The figure for `CC(Oc1ccc2c3c(c(=O)oc2c1)CCC3)C(=O)NC1CCN(Cc2ccccc2)CC1` (centres unmarked) is -47.9%; for `Cn1c(NC(=O)c2ccc(Cl)s2)cc(=O)n(C)c1=O` it is 2.36%.
On to `COc1ccc(CC(=O)Nc2cc(NC(=O)Cc3ccc(OC)c(OC)c3)cc(C(=O)O)c2)cc1OC`, for which the “hERG current change (%, negative = inhibition) at 10uM” value was determined as 14.3%.
The figure for `NNc1nc(-c2ccccc2Cl)c2cc(Br)ccc2n1` is -7.15%.
The figure for `CCC(Sc1nc2ccccc2c2nc3ccccc3n12)C(=O)NCc1ccco1` (centres unmarked) is -4.79%; for `CCN(CC)c1ccc(NC(=O)COc2ccccc2C)cc1S(=O)(=O)Nc1ccccc1OC` it is 25.2%.
With `Cc1c(C(c2ccc([N+](=O)[O-])cc2)c2c(C)n(C)n(-c3ccccc3)c2=O)c(=O)n(-c2ccccc2)n1C` the figure was -19.7%.
`O=C(CCC(=O)N1CCOc2ccc(Cl)cc21)N1CCN(c2ccccn2)CC1`: the “hERG current change (%, negative = inhibition) at 10uM” value was -57.5%.
The figure for `C/C(=N\NC(=O)c1ccco1)c1cc(Cl)sc1Cl` is -6.11%.
The figure for `COC(=O)CC1C(=O)NCCN1C(=O)Nc1ccc(Cl)c(Cl)c1` (centres unmarked) is 17.3%; for `O=C(Cc1c(Sc2ccccc2)c2ccccc2n1Cc1ccccc1)NCCO` it is 10.3%; for `COc1ccc(-n2nnc3c(=O)n(CC(=O)N4CCC(C)CC4)cnc32)cc1` it is -2.4%.
The figure for `O=C(NC1=NCCS1)c1cc(Cl)ccc1Cl` is -24%; for `COc1ccc(CN2CCC(n3nccc3NC(=O)C3CCCC3)CC2)cc1` it is -68.9%.
Consider `NC(=O)[C@@H]1CCCCNc2c(F)cc([N+](=O)[O-])cc2C(=O)N[C@@H](CCCN=C(N)N)C(=O)NCC(=O)N1`, for which the “hERG current change (%, negative = inhibition) at 10uM” value is listed as 15.5%.
The figure for `COc1cc(OC)c(C(=O)Nc2ccc(N(C)C)cc2)cc1OC` is 1.22%.
The figure for `COc1ccccc1CN1CCc2c([nH]c3ccccc23)C1` is -23%; for `Cc1c(Cl)cccc1NC(=O)Cn1cccc1` it is -3.82%; for `Cc1c(NC(=O)Cn2cc([N+](=O)[O-])cn2)c(=O)n(-c2ccccc2)n1C` it is 11.7%.
With `COCc1cc(=O)[nH]c(Nc2nc(C)c3ccccc3n2)n1` the figure was -8.74%; with `N#Cc1nc(-c2ccccc2F)oc1NC1CCCCC1`, -9.17%; with `O=C(NC(NC(=S)Nc1cccc(Cl)c1)C(Cl)(Cl)Cl)OCc1ccccc1` (centres unmarked), 12%.
Consider `CCOC(=O)c1ccc(NC(=O)c2cccc(S(=O)(=O)N3c4ccccc4CC3C)c2)s1` (centres unmarked), for which the “hERG current change (%, negative = inhibition) at 10uM” value is 15%.
The figure for `COc1ccc(C=O)cc1` is 13.9%.
